# According to the supplement of paper PMC10369915:
# The list shows a part of the results. No stated cut-off is given here; in the data, active = 3.2 or more and inactive = the rest. Most of these values are background signal.
# B1: F16P2_HUMAN_216 (peptide)
# chain: IYSLNEGYAKYFDAA
# B2: FAK1_HUMAN_925 (peptide)
# chain: DRSNDKVYENVTGLV
# B3: FCRL6_HUMAN_371 (peptide)
# chain: GKDEGVVYSVVHRTS
# B4: FAK1_HUMAN_570 (peptide)
# chain: GDFGLSRYMEDSTYY
# B5: ERBB4_HUMAN_1221 (peptide)
# chain: NTLGKAEYLKNNILS
# B6: FCERB_HUMAN_219_YA (peptide)
# chain: KVPEDRVYEELNIAS
# B7: FCG2B_HUMAN_292 (peptide)
# chain: GAENTITYSLLMHPD
# B8: FCERB_HUMAN_219 (peptide)
# chain: KVPEDRVYEELNIYS
# B9: ERBIN_HUMAN_920 (peptide)
# chain: SKSATLLYDQPLQVF
# B10: ERBB2_HUMAN_1196 (peptide)
# chain: GAVENPEYLTPQGGA
# B11: ADRBK1_HUMAN_86_YA (peptide)
# chain: ARPLVEFYEEIKKAE
# B12: ERBB4_HUMAN_1208_YA (peptide)
# chain: EAVNEPLYLNTFANT
# B13: ESR1_HUMAN_52_YA (peptide)
# chain: DSSKPAVYNAPEGAA
# B14: FAK1_HUMAN_407 (peptide)
# chain: IIDEEDTYTMPSTRD
# B15: F16P1_HUMAN_265 (peptide)
# chain: VYGGIFLYPANKKSP
# B16: FAK1_HUMAN_397 (peptide)
# chain: SVSETDDYAEIIDEE
# B17: FCG2A_HUMAN_288_YA (peptide)
# chain: AETADGGYMTLNPRA
# B18: F16P1_HUMAN_245_YA (peptide)
# chain: SAPAGARYVGSMVAD
# B19: FAK1_HUMAN_577_YA (peptide)
# chain: AMEDSTAYKASKGKL
# B20: FAK1_HUMAN_577 (peptide)
# chain: YMEDSTYYKASKGKL
# B21: ERBB4_HUMAN_1035 (peptide)
# chain: FNIPPPIYTSRARID
# B22: ERBB4_HUMAN_1284 (peptide)
# chain: IVAENPEYLSEFSLK
# B23: FAM82A2_HUMAN_176 (peptide)
# chain: DAESEGGYTTANAES
# B24: FAK2_HUMAN_580 (peptide)
# chain: YIEDEDYYKASVTRL
# B25: ERP29_HUMAN_66_YA (peptide)
# chain: KFDTQAPYGEKQDEF
# B26: ERBB3_HUMAN_1222_YA (peptide)
# chain: SSLEELGYEAMDVGS
# B27: FAK1_HUMAN_570_YA (peptide)
# chain: GDFGLSRYMEDSTAA
# B28: FCERG_HUMAN_65_YA (peptide)
# chain: AEKSDGVYTGLSTRN
# B29: ESR2_HUMAN_36_YA (peptide)
# chain: SIAIPSSYVDSHHEA
# B30: ERCC6_HUMAN_932 (peptide)
# chain: GANRVVIYDPDWNPS
# B31: FAAA_HUMAN_395 (peptide)
# chain: DEVIITGYCQGDGYR
# B32: ESR1_HUMAN_219 (peptide)
# chain: SIQGHNDYMCPATNQ
# B33: AF1L2_HUMAN_56_YA (peptide)
# chain: SSDEEAIYMNKVTIN
# B34: FCERB_HUMAN_225 (peptide)
# chain: VYEELNIYSATYSEL
# B35: FAAA_HUMAN_395_YA (peptide)
# chain: DEVIITGYCQGDGAR
# B36: AF1L2_HUMAN_413 (peptide)
# chain: DPSPDHLYSFRILHK
# Molecular target: SHP2 C-SH2 domain E139D
# Test: enrichment score (SH2-bound / input frequency) (ratio); bacterial display of known human phosphotyrosine sites (pTyr-Var adds point mutants) read by sequencing; higher = stronger binding; tyrosines were phosphorylated by kinases first
# Details: peptide library: Human pTyr
# 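Further: displayed peptides selected on beads carrying the immobilized SH2 domain, with library peptides lacking any tyrosine serving as negative controls.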
row,Binder,enrichment score
1,B1,inactive: 1.04
2,B2,inactive: 1.12
3,B3,active: 3.96
4,B4,inactive: 0.879
5,B5,inactive: 0.765
6,B6,inactive: 0.946
7,B7,active: 7.77
8,B8,inactive: 0.77
9,B9,inactive: 0.502
10,B10,inactive: 0.727
11,B11,inactive: 0.881
12,B12,inactive: 0.579
13,B13,inactive: 0.775
14,B14,inactive: 0.827
15,B15,inactive: 1.98
16,B16,inactive: 1.4
17,B17,inactive: 0.449
18,B18,inactive: 0.61

row,Binder,enrichment score
1,B19,inactive: 0.998
2,B20,inactive: 0.871
3,B21,inactive: 0.765
4,B22,inactive: 0.798
5,B23,inactive: 0.939
6,B24,inactive: 0.945
7,B25,inactive: 1.13
8,B26,inactive: 0.921
9,B27,inactive: 0.615
10,B28,inactive: 0.703
11,B29,inactive: 0.606
12,B30,inactive: 0.61
13,B31,inactive: 1.41
14,B32,inactive: 1.07
15,B33,inactive: 0.855
16,B34,inactive: 1.78
17,B35,inactive: 1.16
18,B36,inactive: 0.795

# Molecular target: SHP2 C-SH2 domain wild-type
# Test: as above
# Details: peptide library: Human pTyr
row,Binder,enrichment score
1,B1,inactive: 2.17
2,B2,inactive: 0.86
3,B3,active: 7.84
4,B4,inactive: 0.802
5,B5,inactive: 0.896
6,B6,inactive: 0.837
7,B7,active: 11.6
8,B8,inactive: 0.827
9,B9,inactive: 0.549
10,B10,inactive: 0.557
11,B11,inactive: 1.11
12,B12,inactive: 0.454
13,B13,inactive: 0.681
14,B14,inactive: 0.844
15,B15,inactive: 1.76
16,B16,inactive: 1.31
17,B17,inactive: 0.475
18,B18,inactive: 0.513

row,Binder,enrichment score
1,B19,inactive: 0.769
2,B20,inactive: 0.758
3,B21,inactive: 0.73
4,B22,inactive: 0.698
5,B23,inactive: 0.673
6,B24,inactive: 1.06
7,B25,inactive: 0.767
8,B26,inactive: 0.693
9,B27,inactive: 0.61
10,B28,inactive: 0.537
11,B29,inactive: 0.543
12,B30,inactive: 0.679
13,B31,inactive: 1.25
14,B32,inactive: 0.935
15,B33,inactive: 0.586
16,B34,inactive: 1.72
17,B35,inactive: 1.14
18,B36,inactive: 0.791

# Molecular target: SHP2 N-SH2 domain L43F
# Test: as above
# Details: peptide library: Human pTyr
row,Binder,enrichment score
1,B1,inactive: 0.737
2,B2,inactive: 0.942
3,B3,inactive: 0.626
4,B4,inactive: 0.681
5,B5,inactive: 0.806
6,B6,inactive: 0.802
7,B7,active: 8.09
8,B8,inactive: 0.76
9,B9,inactive: 0.593
10,B10,inactive: 0.505
11,B11,inactive: 0.866
12,B12,inactive: 0.545
13,B13,inactive: 1.24
14,B14,inactive: 0.912
15,B15,inactive: 2.36
16,B16,inactive: 1.15
17,B17,inactive: 0.554
18,B18,inactive: 0.461

row,Binder,enrichment score
1,B19,inactive: 1
2,B20,inactive: 1.06
3,B21,inactive: 0.751
4,B22,inactive: 0.61
5,B23,inactive: 0.876
6,B24,inactive: 0.669
7,B25,inactive: 0.839
8,B26,inactive: 0.824
9,B27,inactive: 0.682
10,B28,inactive: 0.793
11,B29,inactive: 0.638
12,B30,inactive: 0.664
13,B31,inactive: 1.12
14,B32,inactive: 1.03
15,B33,inactive: 1.01
16,B34,inactive: 1.39
17,B35,inactive: 1.02
18,B36,inactive: 0.819

# Molecular target: SHP2 N-SH2 domain T42A
# Test: as above
# Details: peptide library: Human pTyr
row,Binder,enrichment score
1,B1,inactive: 0.81
2,B2,inactive: 0.911
3,B3,inactive: 1.04
4,B4,inactive: 0.663
5,B5,inactive: 0.825
6,B6,inactive: 0.85
7,B7,active: 12.2
8,B8,inactive: 0.719
9,B9,inactive: 0.624
10,B10,inactive: 0.667
11,B11,inactive: 1.21
12,B12,inactive: 0.588
13,B13,inactive: 0.672
14,B14,inactive: 0.739
15,B15,inactive: 1.64
16,B16,inactive: 1.18
17,B17,inactive: 0.443
18,B18,inactive: 0.562

row,Binder,enrichment score
1,B19,inactive: 0.74
2,B20,inactive: 0.764
3,B21,inactive: 0.715
4,B22,inactive: 0.608
5,B23,inactive: 1.3
6,B24,inactive: 0.801
7,B25,inactive: 0.728
8,B26,inactive: 0.832
9,B27,inactive: 0.618
10,B28,inactive: 0.662
11,B29,inactive: 0.635
12,B30,inactive: 0.53
13,B31,inactive: 1.12
14,B32,inactive: 0.936
15,B33,inactive: 0.626
16,B34,inactive: 1.62
17,B35,inactive: 1.44
18,B36,inactive: 0.75

# Molecular target: SHP2 N-SH2 domain T52S
# Test: as above
# Details: peptide library: Human pTyr
row,Binder,enrichment score
1,B1,inactive: 0.731
2,B2,inactive: 0.856
3,B3,inactive: 0.744
4,B4,inactive: 0.736
5,B5,inactive: 0.965
6,B6,inactive: 0.897
7,B7,active: 4.81
8,B8,inactive: 0.864
9,B9,inactive: 0.615
10,B10,inactive: 0.557
11,B11,inactive: 1.78
12,B12,inactive: 0.55
13,B13,inactive: 0.758
14,B14,inactive: 0.846
15,B15,inactive: 2.5
16,B16,inactive: 1.33
17,B17,inactive: 0.383
18,B18,inactive: 0.477

row,Binder,enrichment score
1,B19,inactive: 1.05
2,B20,inactive: 0.703
3,B21,inactive: 1.12
4,B22,inactive: 0.65
5,B23,inactive: 0.841
6,B24,inactive: 0.951
7,B25,inactive: 0.824
8,B26,inactive: 0.996
9,B27,inactive: 0.653
10,B28,inactive: 0.625
11,B29,inactive: 0.771
12,B30,inactive: 0.743
13,B31,inactive: 1.46
14,B32,inactive: 0.931
15,B33,inactive: 0.736
16,B34,inactive: 1.56
17,B35,inactive: 1.24
18,B36,inactive: 0.75

# Molecular target: SHP2 N-SH2 domain wild-type
# Test: as above
# Details: peptide library: Human pTyr
row,Binder,enrichment score
1,B1,inactive: 0.806
2,B2,inactive: 0.9
3,B3,inactive: 0.598
4,B4,inactive: 0.693
5,B5,inactive: 1.05
6,B6,inactive: 0.808
7,B7,inactive: 1.62
8,B8,inactive: 0.734
9,B9,inactive: 0.573
10,B10,inactive: 0.575
11,B11,inactive: 1.91
12,B12,inactive: 0.487
13,B13,inactive: 0.705
14,B14,inactive: 0.962
15,B15,inactive: 2.5
16,B16,inactive: 2.09
17,B17,inactive: 0.847
18,B18,inactive: 0.528

row,Binder,enrichment score
1,B19,inactive: 0.82
2,B20,inactive: 1.11
3,B21,inactive: 0.912
4,B22,inactive: 0.729
5,B23,inactive: 0.814
6,B24,inactive: 0.76
7,B25,inactive: 0.95
8,B26,inactive: 0.757
9,B27,inactive: 0.599
10,B28,inactive: 0.922
11,B29,inactive: 0.628
12,B30,inactive: 0.663
13,B31,inactive: 2
14,B32,inactive: 1.2
15,B33,inactive: 0.651
16,B34,inactive: 2.11
17,B35,inactive: 1.42
18,B36,inactive: 0.79
